The values that follow come from ChEMBL document CHEMBL4888484, “Replenishing the malaria drug discovery pipeline: Screening and hit evaluation of the MMV Hit Generation Library 1 (HGL1) against asexual blood stage Plasmodium falciparum ,using a nano luciferase reporter read-out” (2022).

Out of some 150,000 compounds screened, about 540 (0.36%) showed an effect of 50% or more. The list shows a part of the results.

The assay concerns Plasmodium falciparum. Nature of the assay: Primary screen in NF54 nanoGlo assay, in single point, at 2uM, 72h; a lower Z score goes with more inhibition. The assay is classed as functional, Erythrocyte. The note with it: timepoint 72 hour.
As to `CCn1cc(NC(=O)[C@@H]2CC(c3cc(F)ccc3F)=NO2)cn1`, the “% Inhibition” value is -9% and the Z score was 1.4.

`COc1nc2c(cc1CNC(=O)[C@H]1CC[C@@H](O)CC1)C(=O)N(C1CCCC1)C2`: the “% Inhibition” value was -9% and the Z score stood at 1.94.

Take `Cc1noc(C)c1CN1CCCN(CC(=O)N2CCCC2)CC1`: the “% Inhibition” value is -2% and the Z score was 0.23.

As for `Cc1nonc1CC(=O)NC[C@H]1CC(=O)N(C(C)(C)C)C1`, the “% Inhibition” value is listed as -9% and the Z score stood at 1.69.

With `Cc1ocnc1C(=O)NCCc1nc2ccccc2o1`, the “% Inhibition” value is given as -5% and the Z score came out at 0.94.

With `CN1CCCN(C(=O)c2cccc(S(=O)(=O)N3CCCCC3)c2)CC1`, the “% Inhibition” value is recorded as -4% and the Z score was found to be 0.33.

Take `CN(C/C=C/c1ccco1)CC1(CO)CCCC1`: the “% Inhibition” value is reported as -9% and the Z score is 1.84.

Regarding `Cc1cc(Oc2ccc(NC(=O)c3csnn3)cc2)n[nH]1`, the “% Inhibition” value is recorded as -11% and the Z score was determined as 1.16.

For the compound `O=C(NCc1nc(CO)cs1)c1cscc1C(F)(F)F`, the “% Inhibition” value is reported as 6% and the Z score is -0.6.

For `Cc1cccc2c(CNCc3n[nH]c(=O)[nH]3)cccc12`, the “% Inhibition” value turned out to be 2% and the Z score is reported as -0.32.

Regarding `COCCC1(c2noc(C)n2)CCN(C(=O)CN2CCCCCC2)CC1`, the “% Inhibition” value is -11% and the Z score is listed as 1.42.

Take `CCCS(=O)(=O)NC[C@H](N)c1ccc(C(C)C)cc1`: the “% Inhibition” value amounted to 0% and the Z score is given as 0.01.

As for `COc1ccc2nc(CN3CCC[C@H]3C(C)(C)O)sc2c1`, the “% Inhibition” value is -3% and the Z score is reported as 0.49.

Regarding `CCS(=O)(=O)C[C@H](C)N(C)c1ccnc(Cc2ccccc2)n1`, the “% Inhibition” value is listed as 0% and the Z score is reported as 0.05.

Turning to `CCc1ccc(CN2CCC(N3CCC[C@H](C(=O)NC4CC4)C3)CC2)o1`, the “% Inhibition” value is on record as -7% and the Z score is listed as 0.97.

Take `Cc1ccc(CNC(=O)n2ncc3ccccc32)cc1`: the “% Inhibition” value is given as -16% and the Z score is on record as 3.2.

In the case of `O=C(Cn1ncccc1=O)Nc1cccnc1`, the “% Inhibition” value is listed as 2% and the Z score was -0.24.

On to `CCn1cc(CNC(=O)Cn2ccc(=O)cc2)c(C)n1`, for which the “% Inhibition” value is 2% and the Z score is recorded as -0.27.

For the compound `Cc1nc2ncccc2cc1-c1nc(C2CC2)n[nH]1`, the “% Inhibition” value is -2% and the Z score was 0.24.

With `c1coc(Cn2ccnc2-c2cnc(N3CCCC3)s2)c1`, the “% Inhibition” value is 1% and the Z score is -0.09.

As to `CCCn1cc(CNC(=O)CN2CCCC2)cn1`, the “% Inhibition” value is -7% and the Z score was 0.77.

As for `O=C1OCC2(CCN(Cc3ccccc3OC(F)(F)F)CC2)O1`, the “% Inhibition” value was found to be 10% and the Z score was -0.93.

For `Cc1nn(C)c2c(N3CCc4ccccc4C3)nc(C3CC3)nc12`, the “% Inhibition” value was 38% and the Z score is reported as -5.44.

Consider `CC(C)(C)c1cn(C[C@H]2CCCN(C(=O)c3ccc4nccnc4c3)C2)nn1`, for which the “% Inhibition” value is recorded as -5% and the Z score was determined as 0.95.

For the compound `Cc1cccc(C(=O)Nc2cc(OCc3cccc(F)c3)c(Cl)cc2Cl)c1`, the “% Inhibition” value is given as -1% and the Z score is reported as 0.15.

Take `Cc1cccc(CCNC(=O)Cn2nc(C)n(CCc3ccccc3)c2=O)n1`: the “% Inhibition” value is reported as 5% and the Z score is on record as -0.65.

In the case of `C[C@H]1Cc2ccccc2N1c1cc(C#N)ncn1`, the “% Inhibition” value is on record as -2% and the Z score was determined as 0.25.

With `O=C(c1cccnc1)N1C[C@@H]2C[C@@H](O)CN2C2(CN(CC3CC3)C2)C1`, the “% Inhibition” value was 2% and the Z score is on record as -0.37.

For `Cc1cnn([C@@H](C)CNC(=O)c2c(Cl)c(C)nn2C)c1`, the “% Inhibition” value is given as -15% and the Z score came out at 1.29.

As for `Cn1cc([C@H]2CCCN(C(=O)c3cscn3)C2)cn1`, the “% Inhibition” value is given as -7% and the Z score was determined as 1.4.

As to `Cc1noc(C)c1CCCn1cnc2cnccc2c1=O`, the “% Inhibition” value was -7% and the Z score stood at 0.9.

As to `NC1=NC(c2ccccc2)(c2ccccc2)C(=O)N1`, the “% Inhibition” value is -8% and the Z score is reported as 1.16.

With `O=C(CN(Cc1ccccc1)C(=O)c1ccc(F)c(F)c1)N1CCNCC1`, the “% Inhibition” value is listed as -10% and the Z score worked out at 1.

`Cc1cnc(CN2C[C@]3(CCCN(c4nccs4)C3)CCC2=O)cn1`: the “% Inhibition” value is 1% and the Z score was -0.18.

Take `CCc1nsc(N[C@@H](C)C2(S(C)(=O)=O)CC2)n1`: the “% Inhibition” value came to 4% and the Z score is recorded as -0.69.

As to `O=C(c1sc2ccccc2c1Cl)N1CCCN(C(=O)c2sc3ccccc3c2Cl)CC1`, the “% Inhibition” value is reported as 1% and the Z score was -0.18.

`Cc1csc([C@@H](C)CNC(=O)NCc2nc(C)no2)n1`: the “% Inhibition” value amounted to 1% and the Z score was -0.19.

Regarding `CC(CNC1CCCC(C#N)C1)N1CCCC1` (stereo not given), the “% Inhibition” value was -4% and the Z score is on record as 0.45.

With `CN(C(=O)CCOc1cc(F)ccc1F)[C@H]1CCCc2c1cnn2C`, the “% Inhibition” value is -9% and the Z score is 0.84.

As to `CC(C)n1cc([C@H]2OCC[C@@H]2NC(=O)Nc2cnn(-c3ncccn3)c2)cn1`, the “% Inhibition” value is listed as -2% and the Z score worked out at 0.31.

Take `CC(C)n1ccnc1CNC(=O)C[C@H]1COCCN1C(=O)c1ccc(C#N)nc1`: the “% Inhibition” value is reported as -8% and the Z score is 1.64.

For the compound `CC(C)C(C)(C)S(=O)(=O)Cc1cc(C(F)(F)F)nn1C`, the “% Inhibition” value was -5% and the Z score is reported as 0.81.

With `COc1ccc(Br)cc1-c1nc(C(=O)NCCN2CCOCC2)cs1`, the “% Inhibition” value was -12% and the Z score turned out to be 2.13.

As for `Cc1nn(-c2ccccc2)c2sc(C(=O)n3ncc(-c4ccc5c(c4)OCO5)c3N)cc12`, the “% Inhibition” value is listed as -15% and the Z score came out at 1.65.

Turning to `Cc1nn(-c2ccc(Br)cc2)cc1-c1noc(C(=O)NCc2ccccn2)n1`, the “% Inhibition” value is given as -12% and the Z score is 1.53.

With `CN1CCCN(C(=O)C[C@@H](c2ccccc2)c2ccc(Cl)cc2)CC1`, the “% Inhibition” value was 3% and the Z score is recorded as -0.38.

`COc1ccc(CCNC(=O)C2C3C(=O)N(c4cc(C)on4)C[C@]34C=C[C@H]2O4)cc1` (stereo not given in full): the “% Inhibition” value was -6% and the Z score was 1.12.

For `CCc1ccccc1S(=O)(=O)NC[C@H](C(=O)O)C(C)C`, the “% Inhibition” value is 2% and the Z score is listed as -0.45.

As for `Cn1c(=O)c2c(n(C)c1=O)[n+](C)cn2CC(=O)c1ccccc1`, the “% Inhibition” value is given as -2% and the Z score worked out at 0.35.

`CCCn1nccc1S(=O)(=O)N1CCn2nc([C@@H](O)C3CC3)cc2C1`: the “% Inhibition” value was -4% and the Z score is reported as 0.88.

For the compound `CCC1CN(C(=O)Nc2ccc(C(N)=O)c(Cl)c2)C(CC)CN1CC(C)(C)O` (stereo not given), the “% Inhibition” value is given as -15% and the Z score was 1.85.

In the case of `Cc1cc2c(N3CCC(N[C@@H](C)c4ccncn4)CC3)ncnc2s1`, the “% Inhibition” value is given as -6% and the Z score came out at 1.18.

As for `CN(CCNC(=O)c1nnc(C(=O)Nc2ccccc2)s1)C1CCCCC1`, the “% Inhibition” value is on record as -17% and the Z score worked out at 1.6.

For `CC(C)c1ccc(C(=O)N2CCC[C@@](O)(C(F)(F)F)C2)nc1`, the “% Inhibition” value is given as -4% and the Z score was determined as 0.55.

As for `COc1ccc([C@H]2CC(O)=Nc3c(C(=O)O)cn(-c4cccc(Cl)c4)c32)cc1O`, the “% Inhibition” value is given as -28% and the Z score came to 3.31.
